# Laboratory results: the supplement of paper PMC8728848
# The other results are listed elsewhere or left out.
# B1: Di AAL2 (Agrocybe aegerita) (protein)
# chain: MTSNVITQDLPIPVASRGFADIVGFGLDGVVIGRNAVNLQPFLAVKNFAQNAGGWLTTKHVRLIADTTGTGKGDIVGFGNAGVYVSVNNGKNTFADPPKMVIANFGYDAGGWRVEKHLRYLADIRKIGRADIIGFGEKGVLVSRNNGGLNFGPATLVLKDFGYDAGGWRLDRHLRFLADVTGNGHLDIVGFGDKHVFISRNNGDGTFAPAKSVIDNFCIDAGGWKIGDHPRFVADLTGDGTADIIGCGKAGCWVALNNGGGVFGQVKLVINDFGTDKGWQAAKHPRFIADLTGNGRGDVVGFGNAGVYVALNNGDGTFQSAKLVLKDFGVQQGWTVSKHRRFVVDLTGDGCADIIGFGEKETLVSYNDGKGNFGPVKALTNDFSFSGGKWAPETTVCWMANLDSSRHPAPAPMTSNVITQDLPIPVASRGFADIVGFGLDGVVIGRNAVNLQPFLAVKNFAQNAGGWLTTKHVRLIADTTGTGKGDIVGFGNAGVYVSVNNGKNTFADPPKMVIANFGYDAGGWRVEKHLRYLADIRKIGRADIIGFGEKGVLVSRNNGGLNFGPATLVLKDFGYDAGGWRLDRHLRFLADVTGNGHLDIVGFGDKHVFISRNNGDGTFAPAKSVIDNFCIDAGGWKIGDHPRFVADLTGDGTADIIGCGKAGCWVALNNGGGVFGQVKLVINDFGTDKGWQAAKHPRFIADLTGNGRGDVVGFGNAGVYVALNNGDGTFQSAKLVLKDFGVQQGWTVSKHRRFVVDLTGDGCADIIGFGEKETLVSYNDGKGNFGPVKALTNDFSFSGGKWAPETTVCWMANLDSSRH
# Legend:
# Experiment in all cases: glycan array binding signal (z-score within array); higher = stronger binding
# Settings in all cases: glycan notation: IUPAC condensed, linker removed
# [1] = molecular target: GalNAc(b1-4)GlcNAc
# Summary of the method: (§1)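 Glycan array binding is given as a within-array Z-score, which can be read as non-binding when negative. The arrays, 3228 of them, came from the Consortium for Functional Glycomics database and were retained only where the protein sequence was available. Z-scores were averaged across arrays of the same protein sequence at different concentrations or buffers and across linkers.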
# [2] = molecular target: GalNAc(b1-4)GlcNAc(b1-2)Man
# Summary of the method: as §1
# [3] = molecular target: GalNAc(b1-4)GlcNAc(b1-2)Man(a1-3)[GalNAc(b1-4)GlcNAc(b1-2)Man(a1-6)]Man(b1-4)GlcNAc(b1-4)GlcNAc
# Summary of the method: as §1
# [4] = molecular target: GalNAc(b1-4)GlcNAc(b1-3)GalNAc(b1-4)GlcNAc
# Summary of the method: as §1
# [5] = molecular target: GalNAc(b1-4)GlcNAc6S
# Summary of the method: as §1
# [6] = molecular target: GalNAc(b1-6)GalNAc
# Summary of the method: as §1
# [7] = molecular target: GalNAc3S(b1-4)GlcNAc
# Summary of the method: as §1
# [8] = molecular target: GalNAc3S(b1-4)GlcNAc3S
# Summary of the method: as §1
# [9] = molecular target: GalNAc3S(b1-4)[Fuc(a1-3)]GlcNAc
# Summary of the method: as §1
# [10] = molecular target: GalNAc4S6S(b1-4)GlcNAc
# Summary of the method: as §1
# [11] = molecular target: GalNAc6S(b1-4)GlcNAc
# Summary of the method: as §1
# [12] = molecular target: Glc(a1-4)Glc
# Summary of the method: as §1
# [13] = molecular target: Glc(a1-4)Glc(a1-4)Glc(a1-4)Glc
# Summary of the method: as §1
# [14] = molecular target: Glc(a1-6)Glc(a1-6)Glc
# Summary of the method: as §1
# [15] = molecular target: Glc(a1-6)Glc(a1-6)Glc(a1-6)Glc
# Summary of the method: as §1
# [16] = molecular target: Glc(b1-4)Glc
# Summary of the method: as §1
# [17] = molecular target: Glc(b1-6)Glc
# Summary of the method: as §1
# [18] = molecular target: GlcA(b1-3)Gal
# Summary of the method: as §1
# [19] = molecular target: GlcA(b1-3)GlcNAc
# Summary of the method: as §1
# [20] = molecular target: GlcA(b1-6)Gal
# Summary of the method: as §1
# [21] = molecular target: GlcA3S(b1-3)Gal(b1-4)GlcNAc(b1-2)Man
# Summary of the method: as §1
# [22] = molecular target: GlcA3S(b1-3)Gal(b1-4)GlcNAc(b1-3)Gal(b1-4)Glc
# Summary of the method: as §1
# [23] = molecular target: GlcNAc(a1-3)Gal(b1-4)GlcNAc
# Summary of the method: as §1
# [24] = molecular target: GlcNAc(a1-4)Gal(b1-3)GlcNAc
# Summary of the method: as §1
# [25] = molecular target: GlcNAc(a1-4)Gal(b1-4)GalNAc
# Summary of the method: as §1
# [26] = molecular target: GlcNAc(a1-4)Gal(b1-4)GlcNAc
# Summary of the method: as §1
# [27] = molecular target: GlcNAc(a1-4)Gal(b1-4)GlcNAc(b1-3)Gal(b1-4)Glc
# Summary of the method: as §1
# [28] = molecular target: GlcNAc(a1-4)Gal(b1-4)GlcNAc(b1-3)Gal(b1-4)GlcNAc
# Summary of the method: as §1
# [29] = molecular target: GlcNAc(a1-4)Gal(b1-4)GlcNAc(b1-3)Gal(b1-4)GlcNAc(b1-3)Gal(b1-4)GlcNAc
# Summary of the method: as §1
# [30] = molecular target: GlcNAc(a1-4)Gal(b1-4)GlcNAc(b1-3)Gal(b1-4)[Fuc(a1-3)]GlcNAc(b1-3)Gal(b1-4)[Fuc(a1-3)]GlcNAc
# Summary of the method: as §1
binder,measurement,setting,value
B1,glycan array binding signal (z-score),[1],-0.195
same,glycan array binding signal (z-score),[2],-0.315
same,glycan array binding signal (z-score),[3],-0.306
same,glycan array binding signal (z-score),[4],0.421
same,glycan array binding signal (z-score),[5],-0.324
same,glycan array binding signal (z-score),[6],-0.281
same,glycan array binding signal (z-score),[7],-0.335
same,glycan array binding signal (z-score),[8],-0.327
same,glycan array binding signal (z-score),[9],-0.328
same,glycan array binding signal (z-score),[10],-0.269
same,glycan array binding signal (z-score),[11],-0.311
same,glycan array binding signal (z-score),[12],-0.332
same,glycan array binding signal (z-score),[13],-0.33
same,glycan array binding signal (z-score),[14],-0.333
same,glycan array binding signal (z-score),[15],-0.326
same,glycan array binding signal (z-score),[16],-0.324
same,glycan array binding signal (z-score),[17],-0.325
same,glycan array binding signal (z-score),[18],-0.329
same,glycan array binding signal (z-score),[19],2.48
same,glycan array binding signal (z-score),[20],-0.325
same,glycan array binding signal (z-score),[21],-0.327
same,glycan array binding signal (z-score),[22],-0.311
same,glycan array binding signal (z-score),[23],2.92
same,glycan array binding signal (z-score),[24],1.07
same,glycan array binding signal (z-score),[25],1.54
same,glycan array binding signal (z-score),[26],2.75
same,glycan array binding signal (z-score),[27],2.79
same,glycan array binding signal (z-score),[28],2.68
same,glycan array binding signal (z-score),[29],3.24
same,glycan array binding signal (z-score),[30],1.47
